Data as given in PubChem BioAssay AID1963576 (National Center for Advancing Translational Sciences (NCATS), 2024).
The whole screen tested about 46,000 compounds, of which about 60 (0.1%) were called active. Inconclusive results (about 3%) are left out. Calls come from the whole dose curve; as a rule, active = well fitted inhibition curve with a large enough effect; inconclusive = small, poorly fitted or top-dose-only effect; inactive = no such curve, though single readings can be large or run the other way. The list shows a part of the results.

Test: Primary qHTS assay for Inhibitors of ovarian cancer metastasis using an organotypic tumor microenvironment (TME) model.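 For activity change, negative = inhibition: plate controls were DMSO wells for no effect and tomatine positive control wells for full effect.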 Note: nearly all actives have a fitted effect of over 65% in size.
Details: SKOV3ip1-GFP adhesion/invasion on 3D omental model, fluorescence; series mostly up to 45.8 µM; activity change, negative = inhibition: at the top concentration
How it was run: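 qHTS, 4-pt dose (0.36-46 umol/L); SKOV3ip1-GFP, 1,200 cells/well, no FBS; primary omental fibroblast/mesothelial co-culture 48 h pre-grown; 2 h RT + 16 h 37 C; PBS wash, 4% PFA; GFP count 488/509 nm.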

outcome, inactive:
CCC(=O)N1CCc2cc(S(=O)(=O)NC(Cc3ccccc3)C(=O)O)ccc21 (stereo unspecified)
CCOc1ccc(-n2nc(CO)c(C(=O)NCC(C)O)n2)cc1 (stereo unspecified)
Clc1ccccc1CSc1nc(NCCc2ccccc2)c2ccccc2n1
CCOC(=O)C1CCN(c2ncnc3c2c(-c2ccccc2)cn3-c2ccc(Cl)cc2)CC1
CCOc1ccc(NC(=O)CCc2nnc3n(C)c(=O)c4sccc4n23)cc1
CCN(Cc1ccccc1)C(=O)Cn1ncc2c(=O)oc3ccc(C)cc3c21
CCOc1ccccc1Nc1sc(C(=O)c2ccc(Cl)cc2)c(N)c1S(=O)(=O)c1ccccc1
CCOc1cccc(NC(=O)C2CC(=O)N(C)C(=Nc3ccc(OC)cc3)S2)c1 (stereo unspecified)
CCOc1ccc(-n2c(=O)c3c(C)c(C(=O)N(C)C)sc3n(Cc3cc(C)ccc3C)c2=O)cc1
Cc1ccc(CNC(=O)CN2C(=O)CCc3cc(S(=O)(=O)N4CCCCC4)ccc32)cc1
Cc1ccc(NC(c2nnc(-c3ccccc3)o2)c2ccccc2F)c(Cl)c1 (stereo unspecified)
COC(=O)c1ccc2nc(C)cc(Nc3cccc(Cl)c3C)c2c1
CCN(CC)CCSc1nnc2c3cc(F)ccc3n(CC)c2n1
O=C(NCCc1ccccc1)c1ccc(CS(=O)(=O)c2ccc(Cl)cc2)o1
COc1ccccc1CNC(=O)Cn1c(=O)nc(-c2ccccc2)c2ccccc21
CC1CCN(c2nc3ccc(C(=O)NCCc4ccc(S(N)(=O)=O)cc4)cc3s2)CC1
COc1ccc(CC(=O)NC2CC(=O)N(c3ccc(C)c(C)c3)C2)cc1OC (stereo unspecified)
O=C(CN1C(=O)CCc2cc(S(=O)(=O)N3CCCCC3)ccc21)NCc1ccc(Cl)cc1
Cc1cccc2sc(N(Cc3cccnc3)C(=O)C3COc4ccccc4O3)nc12 (stereo unspecified)
Cc1cc(NC(=O)c2cnc3c(-c4ccccc4)c(C)nn3c2C)ccc1Br
Cc1ccc(/C=C/c2onc(C)c2S(=O)(=O)N2CCC(C(=O)NCc3ccc(OC(C)C)cc3)CC2)cc1
CC1=C(C(=O)OCc2ccc(C)cc2)C(c2cccc(F)c2F)CC(=O)N1 (stereo unspecified)

Activity change, negative = inhibition, inactive:
COc1cc(NC(=O)C2Cc3ccccc3N2C(=O)c2ccccc2)cc(OC)c1 (stereo unspecified) -0.743%
Cc1cccc(C(=O)NNc2ncnc3c2cnn3-c2ccc(C)c(Cl)c2)c1 1.64%
CC(CNC(=O)CCCn1c(=O)c2cccn2c2ccc(F)cc21)c1ccccc1 (stereo unspecified) -0.0794%
Cc1ccc(-c2nc(CS(=O)CC(=O)NCCc3ccc(Cl)cc3)c(C)o2)cc1 (stereo unspecified) -5.11%
COc1ccc(N2CCN(c3ncnc4c3nnn4C)CC2)cc1 5.19%
COc1ccc(OCCn2nnc3sc4c(c3c2=O)CCCC4)cc1 -1.49%
CCOc1ccccc1Oc1nc(C)nc2c1oc1ccccc12 -14.8%
N#Cc1c(C(F)(F)F)cc(-c2cccs2)nc1SCc1ccccc1F 3.7%
Cc1ccc(NC(=O)Cn2c(=O)n(CCCCC(=O)NCc3ccc4c(c3)OCO4)c(=O)c3ccccc32)cc1 14.8%
CCC(=O)N1c2ccccc2CC1C(=O)N1CCN(c2ccccc2F)CC1 (stereo unspecified) 7.46%
CCOc1ccccc1CNS(=O)(=O)c1cc(-c2onc(C)c2C)ccc1OC -1.81%
COc1cnc(NS(=O)(=O)c2ccc(N)cc2)nc1 2.75%
CCOC(=O)c1c(C)[nH]c(C)c1S(=O)(=O)NCC(=O)NCc1ccccc1C 1.97%
Cc1cccc(N2CCN(C(=O)c3ccc4c(c3)N(Cc3cccc(Cl)c3)C(=O)c3ccccc3S4(=O)=O)CC2)c1C 3.21%
O=C(CSc1ncc2c(n1)-c1ccccc1N(Cc1ccc(Cl)cc1)S2(=O)=O)c1ccccc1 2.96%
O=C(O)CCn1c2c(c3ccccc31)C[C@H](NS(=O)(=O)c1ccc(F)cc1)CC2 11.8%
CCOc1ccc(CNCc2c(C(=O)O)n(Cc3ccccc3C)c3cc(OC)ccc23)cc1OC -8.2%
CC(CNC(=O)C1CCN(C(=O)c2cc3sccc3n2C)CC1)c1ccccc1 (stereo unspecified) -14.5%
COc1ccccc1NC(=O)Cn1ccn(-c2cc(C)cc(C)c2)c(=O)c1=O -4.63%
CCC(C(=O)NC1CCCCC1)n1c(SCc2cccc(F)c2)nc2ccncc21 (stereo unspecified) -5.64%
Cc1ccc(S(=O)(=O)C(CNS(=O)(=O)c2ccc(F)c(C(F)(F)F)c2)c2ccco2)cc1 (stereo unspecified) 4.65%
COc1ccccc1CNC(=O)CCc1c(C)nn(-c2ccc(N3CCCCC3)nn2)c1C -3.7%
Cn1nc(C(=O)NCc2ccccc2)c2c1-c1ccccc1S(=O)(=O)C2 0.204%
Cc1ccc(Cl)cc1N1CCN(C(=O)CCS(=O)(=O)c2ccc3c(c2)oc(=O)n3C)CC1 5.03%
Cc1cccc(CN2CCN(C(c3ccccc3)c3ccc(Cl)cc3)CC2)c1 (stereo unspecified) -11.1%
Cc1ccc(Cl)cc1Nc1nn2c(=O)c3ccc(C(=O)NC(C)c4ccccc4)cc3nc2s1 (stereo unspecified) -39.7%
O=c1c2sc3ccccc3c2n(Cc2ccc(F)cc2Cl)c(=O)n1Cc1ccccc1 8.13%
CN(C(=O)CSc1nc2ccccc2n1Cc1ccccc1C#N)c1ccccc1 -0.472%
CCOc1ccc(-c2nc3cc(NC(=O)COc4cccc(C)c4)ccc3o2)cc1 -6.31%
Cc1ccc(S(=O)(=O)C(CNC(=O)C(=O)NCc2ccc(Cl)cc2)c2ccco2)cc1 (stereo unspecified) -1.24%
CCOC(=O)c1ccc(-c2ccc(/C=C(\C#N)C(=O)Nc3ccc(C)cc3)o2)cc1 2.3%
COc1cc(CN(C(=O)c2ccc(Cl)cc2)C2CCS(=O)(=O)C2)cc(OC)c1OC (stereo unspecified) -4.98%
CCn1cc(S(=O)(=O)c2ccc(Cl)cc2)c(=O)c2cc(F)c(N3CCOCC3)cc21 17.8%
Cc1ccc2onc(CNC(=O)N3CCN(c4cccc(C(F)(F)F)c4)CC3)c2c1 0.551%
COCC(=O)Nc1c(C(=O)Nc2ccc(C)cc2)oc2ccccc12 -6.85%
CCOc1ccc(S(=O)(=O)N(CC(=O)Nc2ccc3c(c2)OCO3)c2ccc(C)cc2)cc1 -4.51%
Cc1ccc2oc(-c3ccc(C)c(NC(=O)c4ccc(-c5ccccc5[N+](=O)[O-])o4)c3)nc2c1 -23.1%
COC(=O)c1ccc2c(=O)n(CCCCCC(=O)N3CCN(c4ccc(Cl)cc4)CC3)c(=O)[nH]c2c1 2.86%
Cc1ccc(CCNC(=O)CCn2nc(-c3ccc(C)cc3)ccc2=O)cc1 18.1%
COc1cccc(C(=O)n2nc(-c3cccnc3)nc2NCc2ccc(F)cc2)c1 -3.27%
Cc1c(Cl)cccc1NC(=O)Nc1ccc2snnc2c1 -29%
COC(=O)c1ccc(NC(=O)CN(Cc2ccccc2)S(=O)(=O)c2ccc(Cl)cc2)cc1 -6.14%
CCCSc1nnc2c(n1)OC(c1cccs1)Nc1ccc(Br)cc1-2 (stereo unspecified) 6.82%
CC(=O)Nc1ccc(NC(=O)c2cc(-c3ccc4c(c3)OCCO4)on2)cc1 1.91%
CCC(=O)N1c2ccc(S(=O)(=O)CCC(=O)NCc3cccc(OC)c3)cc2CC1C (stereo unspecified) 8.42%
Cc1cccc(S(=O)(=O)c2cn(C)c3cc(N4CCC(C)CC4)c(F)cc3c2=O)c1 30.5%
CCc1ccc(N(CC)C(=O)Cn2cnc3sc(C)c(S(=O)(=O)N4CCN(c5ncccn5)CC4)c3c2=O)cc1 6.36%
CCCOc1ccccc1C1C(C(=O)Nc2ccccc2)=C(C)Nc2nnnn21 (stereo unspecified) -23.1%
N#C/C(=C\c1cc(Br)c(O)c(Br)c1)c1nc2ccccc2c(=O)[nH]1 1.04%
CCc1ccc(OCC(=O)Nc2ccc3c(c2)c2ccccc2n3CC)c(Br)c1 5.31%
CCOc1ccc(NC(=O)C(C)n2c(=O)cc(C)c3c(C)nn(-c4ccccc4)c32)cc1 (stereo unspecified) -2.3%
Cc1ccc2onc(CC(=O)N3CCN(c4ccccc4)CC3)c2c1 -27.9%
COc1ccc(-c2nc(SCC(=O)NCCc3ccccc3)n[nH]2)cc1 -1.23%
COc1ccc(-c2noc(CSc3nnc(C)n3-c3ccc(C)c(C)c3)n2)c(OC)c1 -1.99%
O=C(NCc1ccccc1Cl)c1nnc(Cc2ccc(Cl)cc2)o1 -7.14%
Cc1cccc(CSc2ccc(-c3cccs3)nn2)c1 3.09%
CCc1ccc(NC(=O)CSc2ncc(S(=O)(=O)c3cc(C)ccc3C)c(=O)[nH]2)cc1 3.06%
O=NN(CCCl)C(=O)NC1CCCCC1 6.55%
COC(=O)c1c(NC(=O)c2ccc(S(=O)(=O)N(C)C3CCCCC3)cc2)sc2c1CCN(C)C2 12.1%
COC(=O)c1ccccc1NC(=O)C1CCCN(c2nnc(C)c3c(C)n(-c4ccccc4)nc23)C1 (stereo unspecified) -0.0812%
CCOC(=O)C(Cc1ccccc1)NC(=O)CCc1c(C)nc2c(c(C)nn2-c2ccc(C)c(C)c2)c1C (stereo unspecified) 39.4%
Cc1ccc(CNC(=O)CN2C(=O)C3(SCC(=O)N3c3ccc(F)c(F)c3)c3ccccc32)cc1 (stereo unspecified) -9.08%
COc1ccc(-c2nc(Cn3c(SCc4ccccc4F)nc4cccnc43)c(C)o2)cc1 0.716%
Cc1cccc(N2CCN(C(=O)CN3C(=O)COc4ccc(S(=O)(=O)N5CCCC5)cc43)CC2C)c1 (stereo unspecified) 21.1%
Cc1cc(NC(=O)C(C)(C)C)cc(-c2nc3ncccc3o2)c1O 3.29%
COc1ccc(OCC(=O)NCC(c2ccc(OC)cc2)N2CCOCC2)cc1 (stereo unspecified) -13.6%
Cc1ccc(C)c(N2CCN(C(=O)CS(=O)(=O)c3cccc4nsnc34)CC2)c1 -3.11%
COc1cccc(CNCCSc2nnnn2-c2ccccc2)c1OC 5.45%
COc1ccc(-c2c(C)c3ccc(O)c(CN4CCCC4)c3oc2=O)cc1 0.134%
Cc1ccc(CNC(=O)c2ccccc2NC(=O)c2nsc3ccccc23)cc1 -25.7%
CCc1c(CN2CCN(c3ccccc3F)CC2)csc1C 0.148%
CCn1c(SCC(=O)c2ccccc2)nnc1-c1cccc(Cl)c1 -5.65%
Cc1ccc2c(c1)c1c3n2CCN(C(=O)c2ccc(C(F)(F)F)cc2)C3CCC1 (stereo unspecified) -3.78%
COc1ccc(-c2cc(C(F)(F)F)n3nc(C(=O)Nc4cc(C)ccc4C)cc3n2)cc1 6.29%
